The test system of one test is Fusarium verticillioides. Conditions: maize, with X-77 adjuvant 0.125% v/v.
Test [1] has as its system Fusarium verticillioides and Fusarium graminearium. Conditions: with X-77 adjuvant 0.125% v/v.

Consider 1 substance from patent US20130237415A1 (priority 2010, published 2013).

Read-outs that look alike come from different tables or passages of the source.

In the case of Prothioconazole, the “% Disease Severity % of Control” value is listed as 51.6% with Fusarium verticillioides (applied GS 51-55, 50 gai/ha); 88.4% with Fusarium verticillioides (applied GS 51-55, 100 gai/ha); 74.7% with Fusarium verticillioides (applied GS 51-55, 200 gai/ha). For the same substance, the “% Disease Severity Observed per Ear” value with Fusarium verticillioides (applied GS 51-55, 50 gai/ha) is on record as 7.5%; in the test on Fusarium verticillioides (applied GS 51-55, 100 gai/ha), 12.6%; in the test on Fusarium verticillioides (applied GS 51-55, 200 gai/ha), 10.7%. For the same substance, the “Fusarium Efficacy Observed (%)” value was determined as 48.4% in the test with Fusarium verticillioides (applied GS 51-55, 50 gai/ha); 11.6% in the test with Fusarium verticillioides (applied GS 51-55, 100 gai/ha); 25.3% with Fusarium verticillioides (applied GS 51-55, 200 gai/ha). Moreover, the “Maize Weight per maize Ear, Observed Mass (grams)” value worked out at 104.0 grams in test [1] (applied GS 51-55, 100 gai/ha) and 107.8 grams in test [1] (applied GS 51-55, 200 gai/ha).
